Data published in PubChem BioAssay AID540267 (National Center for Advancing Translational Sciences (NCATS), 2011).
The whole screen tested about 340,000 compounds, of which about 530 (0.16%) were called active. This list was built around the results that the source calls inconclusive (neither active nor inactive); the mix of calls is not that of the screen. No stated cut-off is given here; in the data, active means activity change below about -80%; inconclusive means between about -30% and that limit; inactive means weaker than that.
On the % scale 0 is the no-effect control and ±100 the full control effect.

Test: Small Molecules that selectively kill Giardia lamblia: qHTS;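 further: parasites exposed to compound for two days anaerobically before the ATP read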
Details: Giardia lamblia trophozoite viability; at 7.66 µM; stronger effect = lower value
How it was run: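 Giardia trophozoites, 100 cells per well, were exposed to compounds for 48 hrs at 37 deg C under anaerobic conditions; viability was then read as ATP content by bioluminescence after 15-30 min at room temperature.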
For `O=c1c2ccccc2nc(/C=C/c2ccc(O)cc2)n1CCc1ccccc1`, the activity change was inactive: 9.86%. In the case of `O=C(Cc1ccc(Cl)cc1)Nc1ccccc1N1CCOCC1`, the activity change was inconclusive: -42.8% [inhibitor]. In the case of `CCOc1ccc(C2C(C(=O)Nc3ccc(F)cc3)=C(C)Nc3nc(CCCO)nn32)cc1` (stereo not given), the activity change was inconclusive: -30% [inhibitor]. With `COC(=O)c1cc(C(=O)OC)n(Cc2ccc(F)cc2)c1C` the activity change was inactive: -20.9%. With `C/C(=N\Nc1cccc2cccnc12)c1ccccn1` the activity change was inconclusive: -46.9% [inhibitor]. For `c1ccc(-c2cc3ccccc3cn2)cc1`, the activity change was inconclusive: -32.6% [inhibitor]. For `CCOC(=O)CCSc1cc(C)c2ccccc2n1`, the activity change was inconclusive: -31.1% [inhibitor]. With `Cc1cccc(NC(=O)Cn2cc(C=O)c3ccccc32)c1` the activity change was inconclusive: -42.5% [inhibitor]. In the case of `O=C(Nc1ccc(-c2nc3ccccc3[nH]2)cc1)C1CCCO1` (stereo not given), the activity change was inconclusive: -67.8% [inhibitor]. With `CC(=O)N[C@H]1[C@H](OC2CCCCC2)O[C@H](COC(C)=O)[C@@H](OC(C)=O)[C@@H]1OC(C)=O` the activity change was inconclusive: -41.6% [inhibitor]. For `O/N=C/c1ccc(OCc2ccccc2)c(Br)c1`, the activity change was inconclusive: -30.6% [inhibitor]. For `CCOc1ccc(NC(=S)NCCN2CCN(Cc3ccccc3)CC2)cc1`, the activity change was inconclusive: -40.7% [inhibitor]. In the case of `O=C(Nc1ccc(O)c2c(=O)cc(-c3ccccc3Cl)oc12)c1ccc(F)cc1`, the activity change was inconclusive: -52.9% [inhibitor]. With `Cc1nc2ccccc2n1CCN1CCOCC1` the activity change was inconclusive: -30.8% [inhibitor]. For `Cc1nn(-c2ccc(C(=O)O)cc2)c(N)c1-c1ccccc1`, the activity change was inconclusive: -30.2% [inhibitor]. With `O=C(NC(NC(=S)Nc1ccccc1C(=O)O)C(Cl)(Cl)Cl)c1cccc([N+](=O)[O-])c1` (stereo not given) the activity change was inconclusive: -32.4% [inhibitor]. With `O=C(O)c1cccc(NC2=C(N3CCOCC3)C(=O)c3ccccc3C2=O)c1` the activity change was inconclusive: -30.4% [inhibitor]. With `CCN(CC)C(=O)c1sc2nc(-c3ccccn3)[nH]c(=O)c2c1C` the activity change was inactive: 24.4%. For `COc1ccc(N(CC(=O)NCc2ccco2)S(=O)(=O)c2c(C)nn(C)c2C)cc1`, the activity change was inconclusive: -31.2% [inhibitor]. For `Cc1ccc(C)c(N2CCN(C(=O)c3ccc(CS(=O)Cc4ccc(Cl)cc4)o3)CC2)c1` (stereo not given), the activity change was inactive: -7.59%. With `CN1C[C@@H]2C(c3ccccc3)C3(c4ccc(C#N)cc4)CC2(C3)[C@H]1c1ccccc1` (stereo not given in full) the activity change was inconclusive: -37.9% [inhibitor]. In the case of `CCOc1cccc(NC(=O)c2cnccc2C(F)(F)F)c1`, the activity change was inactive: -7.6%. With `CN(C)C(=O)CCCc1nc(-c2ccc(Cl)cc2)no1` the activity change was inactive: -5.95%. With `Nc1nc(Cl)nc2c1ncn2[C@H]1C[C@H](O)[C@@H](CO)O1` the activity change was inconclusive: -52.4% [inhibitor]. In the case of `Cc1cc(C(=O)Cn2nc(C(=O)O)c3ccccc3c2=O)c(C)n1-c1ccccc1`, the activity change was inconclusive: -53.1% [inhibitor]. For `COC(=O)/C=C1/SC(=NC(=O)c2ccc(OC)cc2)NC1=O`, the activity change was inconclusive: -41.5% [inhibitor]. For `O=C(Nc1cc([N+](=O)[O-])c2[nH]c(=O)c3ccccc3c2c1)C(F)(F)F`, the activity change was inconclusive: -46.6% [inhibitor]. In the case of `Cc1ccc(N(Cc2ccccc2)C(=O)c2cccc(S(=O)(=O)N3CC(C)OC(C)C3)c2)cc1` (stereo not given), the activity change was inconclusive: -35.2% [inhibitor]. In the case of `O=[N+]([O-])c1cccc2c(N3CCCC3)ccnc12`, the activity change was inconclusive: -37.3% [inhibitor]. With `COc1ccccc1-c1nc(-c2ccccn2)no1` the activity change was inconclusive: -61.1% [inhibitor]. With `Cc1cc(C)c(-c2csc(NC(=O)c3n[nH]c(=O)c4ccccc34)n2)c(C)c1` the activity change was inactive: 32.8%. In the case of `COc1ccc(/C=N/Nc2cc(C)nc3c(C)cccc23)cc1`, the activity change was inconclusive: -47.2% [inhibitor]. For `Cc1cc(C)cc(N(C(=O)c2ccccn2)C(C(=O)NC2CCCCC2)c2ccncc2)c1` (stereo not given), the activity change was inconclusive: -33.8% [inhibitor]. With `Cc1cc(NC(=O)C23CC4CC(C2)CC(n2cnc([N+](=O)[O-])n2)(C4)C3)no1` the activity change was inconclusive: -43.8% [inhibitor]. For `O=C(CC1C(=O)NCCN1Cc1c(F)cccc1Cl)NCCCOc1cccnc1` (stereo not given), the activity change was inactive: 26.5%. In the case of `COc1cc2sc(-c3ccc(S(C)(=O)=O)cc3)c(-c3ccc4c(c3)OCO4)c2cc1OC`, the activity change was inconclusive: -33.4% [inhibitor]. In the case of `Cc1ccc(NC(=O)c2ncn(CCCNCC(C)c3ccccc3)n2)cc1C` (stereo not given), the activity change was inconclusive: -30.3% [inhibitor]. With `O=c1c([N+](=O)[O-])cc(C(F)(F)F)cn1Cc1c(Cl)cccc1Cl` the activity change was active: -90.8%. With `COc1ccc(CNCc2ccncc2)c(OC)c1` the activity change was inconclusive: -33.7% [inhibitor]. With `Cc1ccnc(NC(=O)CCNC(=O)c2ccc(Cl)cc2)c1` the activity change was inactive: -7.39%. In the case of `COc1ccc(-c2ccc([C@H]3[C@@H]4C=CCC[C@@]4(C)C(=O)N3Cc3ccccc3)c(F)c2)cc1OC`, the activity change was inconclusive: -45.4% [inhibitor]. In the case of `Cc1ccc(OC(C)C(=O)N/N=C/c2ccccn2)cc1` (stereo not given), the activity change was inconclusive: -30.8% [inhibitor]. In the case of `C=CCNC(=S)NNc1nc(N2CCCC2)nc(N2CCCC2)n1`, the activity change was inconclusive: -39.3% [inhibitor]. For `O=C(Nc1nnc(SCC(=O)N2CCCc3ccccc32)s1)c1ccccc1`, the activity change was inconclusive: -37.4% [inhibitor]. With `FC(F)Oc1ccc(NC(=S)NCc2cccnc2)cc1` the activity change was inconclusive: -32.1% [inhibitor]. In the case of `O=C(O)c1ccccc1NS(=O)(=O)c1cccc(N=Nc2c(O)[nH]c(=S)[nH]c2=O)c1`, the activity change was inactive: 3.51%. For `CN=c1scc(-c2ccc([N+](=O)[O-])cc2)n1/N=C/c1ccco1`, the activity change was inconclusive: -46.9% [inhibitor]. For `O=C(Nc1cccc(C(=O)O)c1)/C(=C/c1cccc([N+](=O)[O-])c1)NC(=O)c1cccc(Br)c1`, the activity change was inconclusive: -33.5% [inhibitor]. In the case of `C(=C\c1ccncc1)/c1ccncc1`, the activity change was inactive: 24.5%. In the case of `CCN1CCN(CCNC(=O)c2ccc3c(c2)N(Cc2ccc(F)cc2)C(=O)c2ccccc2S3=O)CC1` (stereo not given), the activity change was inconclusive: -32.7% [inhibitor]. With `CC(C)(C)C(=O)Nc1ccccc1C(=O)NCCC(=O)Nc1ccccc1` the activity change was inconclusive: -31.1% [inhibitor]. In the case of `c1cc2c3c(cccc3c1)C(N1CCOCC1)=N2`, the activity change was inactive: -3.8%. For `COc1cc2nc(NCCCN3CCN(C)CC3)n3nc(-c4ccccc4)nc3c2cc1OC`, the activity change was inactive: 2.22%. In the case of `O=C(Cc1ccc(Cl)cc1)N/N=C/c1c(Cl)cccc1Cl`, the activity change was inconclusive: -30.9% [inhibitor]. In the case of `COc1ccc2cc(C(=O)N3CCN(c4ccccc4OC)CC3)[nH]c2c1`, the activity change was inconclusive: -34.4% [inhibitor]. In the case of `O=C(COC(=O)c1ccc2c(c1)S(=O)(=O)N=C1CCCCCN12)NCc1cccs1`, the activity change was inconclusive: -31% [inhibitor]. In the case of `Cc1cnc(C(=O)OCC(=O)Nc2ccc(C)c(S(=O)(=O)N(C)C)c2)cn1`, the activity change was inactive: 19.6%. For `CCCCc1cc(=O)oc2c(C)c(OCC(=O)NCc3ccccn3)ccc12`, the activity change was inconclusive: -46.4% [inhibitor]. For `Cc1ccc(C(C(=O)NCc2ccco2)N(C(=O)CNC(=O)c2cccs2)c2ccc(C)cc2C)cc1` (stereo not given), the activity change was inconclusive: -40.3% [inhibitor]. With `Cc1ccccc1OCCn1cc(C(=S)N2CCN(C)CC2)c2ccccc21` the activity change was inactive: 7.21%. In the case of `COc1ccc(C(C)NC(=S)NC2CCCC2)cc1OC` (stereo not given), the activity change was inactive: -24.6%. For `O=C(NCC1CCCO1)c1nn2c(C(F)(F)F)cc(-c3ccc(Br)o3)nc2c1Br` (stereo not given), the activity change was inactive: 2.48%. With `O=C(NNC(=O)c1ccc(Br)s1)c1csc(N2CCOCC2)n1` the activity change was inconclusive: -42.9% [inhibitor]. In the case of `CCN1C(=O)C(CC(=O)Nc2ccc(OC)cc2)N(CCc2ccc(F)cc2)C1=S` (stereo not given), the activity change was inactive: 4.25%. In the case of `O=[N+]([O-])c1ccc(N=NN(CCO)CCO)cc1`, the activity change was inconclusive: -50.5% [inhibitor]. With `COC(=O)C1CCN(C(=O)COC(=O)c2ccc(N3CCCC3=O)cc2)CC1` the activity change was inconclusive: -31.5% [inhibitor]. With `O=[N+]([O-])c1ccc(C2=Nn3cnnc3SC2)cc1` the activity change was inconclusive: -35.5% [inhibitor]. In the case of `COc1ccc(OCCCc2c(C)n[nH]c2C)cc1`, the activity change was inconclusive: -32.9% [inhibitor]. For `CC(C)NC(=O)N(C)C[C@H]1Oc2c(NC(=O)Nc3ccc4c(c3)OCO4)cccc2C(=O)N([C@H](C)CO)C[C@@H]1C`, the activity change was inconclusive: -31.6% [inhibitor]. For `O=C(Cc1ccc([N+](=O)[O-])cc1)NNC(=O)c1cccs1`, the activity change was inconclusive: -34.6% [inhibitor]. For `O=C(COC(=O)c1cc(Cl)ccc1O)NC(=O)NCc1ccccc1`, the activity change was inconclusive: -45.9% [inhibitor]. With `CN1CCN(c2ccccc2NC(=O)c2ccc(-c3ccc(Cl)cc3Cl)o2)CC1` the activity change was inactive: 5.62%. In the case of `N#C/C(=C\c1ccccc1C(F)(F)F)C(=O)Nc1ccccc1F`, the activity change was inconclusive: -31.9% [inhibitor]. With `CCOC(=O)c1ccc(NC(=O)CSc2nc(N)c(NC(=O)c3ccc(Br)o3)c(=O)[nH]2)cc1` the activity change was inactive: 2.22%. For `COC(=O)c1ccc(S(=O)(=O)N2CCOCC2)o1`, the activity change was inconclusive: -41.4% [inhibitor].
